Experimental data reported in article PMC3517537.
No constants are given. Whether binding was seen depends on the method and setting. Binding seen in cells or lysates may run through a third protein. Some binding calls cover weakened binding; strength is not graded here.

The chains behind the UniProt entries cited, without tags or fusion partners.
UniProt Q15691: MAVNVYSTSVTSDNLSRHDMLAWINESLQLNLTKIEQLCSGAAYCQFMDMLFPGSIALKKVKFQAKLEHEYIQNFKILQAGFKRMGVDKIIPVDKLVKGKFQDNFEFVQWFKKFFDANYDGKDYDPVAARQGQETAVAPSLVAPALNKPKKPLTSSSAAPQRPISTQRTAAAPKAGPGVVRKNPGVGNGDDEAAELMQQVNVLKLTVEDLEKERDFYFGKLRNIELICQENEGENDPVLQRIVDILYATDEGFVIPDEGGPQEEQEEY

Target: GST-EB1 fusion protein (pGEX (6p-2)-EB1) (UniProt Q15691)
Test: pull-down; purified GST, GST-hGTSE1 or GST-EB1 immobilised on glutathione-Sepharose 4B beads, incubated with 35S-labeled in vitro translated proteins in 150 mM NaCl, 20 mM Hepes pH 7.5, 0.05% NP-40, 10% glycerol; autoradiography; only the target purified

binding | Binder
binds | in vitro translated 35S-labeled GTSE1 WT (protein, UniProt Q9NYZ3 1-739, 35S-labeled) MEGGGGRDEPSACRAGDVNMDDPKKEDILLLADEKFDFDLSLSSSSANEDDEVFFGPFGHKERCIAASLELNNPVPEQPPLPTSESPFAWSPLAGEKFVEVYKEAHLLALHIESSSRNQAAQAAKPEDPRSQGVERFIQESKLKINLFEKEKEMKKSPTSLKRETYYLSDSPLLGPPVGEPRLLASSPALPSSGAQARLTRAPGPPHSAHALPRESCTAHAASQAATQRKPGTKLLLPRAASVRGRSIPGAAEKPKKEIPASPSRTKIPAEKESHRDVLPDKPAPGAVNVPAAGSHLGQGKRAIPVPNKLGLKKTLLKAPGSTSNLARKSSSGPVWSGASSACTSPAVGKAKSSEFASIPANSSRPLSNISKSGRMGPAMLRPALPAGPVGASSWQAKRVDVSELAAEQLTAPPSASPTQPQTPEGGGQWLNSSCAWSESSQLNKTRSIRRRDSCLNSKTKVMPTPTNQFKIPKFSIGDSPDSSTPKLSRAQRPQSCTSVGRVTVHSTPVRRSSGPAPQSLLSAWRVSALPTPASRRCSGLPPMTPKTMPRAVGSPLCVPARRRSSEPRKNSAMRTEPTRESNRKTDSRLVDVSPDRGSPPSRVPQALNFSPEESDSTFSKSTATEVAREEAKPGGDAAPSEALLVDIKLEPLAVTPDAASQPLIDLPLIDFCDTPEAHVAVGSESRPLIDLMTNTPDMNKNVAKPSPVVGQLIDLSSPLIQLSPEADKENVDSPLLKF
no binding | in vitro translated 35S-labeled GTSE1 mutated at the SKIP motifs (L511N P512N L522N P523N) (protein, UniProt Q9NYZ3 1-739, 35S-labeled) MEGGGGRDEPSACRAGDVNMDDPKKEDILLLADEKFDFDLSLSSSSANEDDEVFFGPFGHKERCIAASLELNNPVPEQPPLPTSESPFAWSPLAGEKFVEVYKEAHLLALHIESSSRNQAAQAAKPEDPRSQGVERFIQESKLKINLFEKEKEMKKSPTSLKRETYYLSDSPLLGPPVGEPRLLASSPALPSSGAQARLTRAPGPPHSAHALPRESCTAHAASQAATQRKPGTKLLLPRAASVRGRSIPGAAEKPKKEIPASPSRTKIPAEKESHRDVLPDKPAPGAVNVPAAGSHLGQGKRAIPVPNKLGLKKTLLKAPGSTSNLARKSSSGPVWSGASSACTSPAVGKAKSSEFASIPANSSRPLSNISKSGRMGPAMLRPALPAGPVGASSWQAKRVDVSELAAEQLTAPPSASPTQPQTPEGGGQWLNSSCAWSESSQLNKTRSIRRRDSCLNSKTKVMPTPTNQFKIPKFSIGDSPDSSTPKLSRAQRPQSCTSVGRVTVHSTPVRRSSGPAPQSLLSAWRVSANNTPASRRCSGNNPMTPKTMPRAVGSPLCVPARRRSSEPRKNSAMRTEPTRESNRKTDSRLVDVSPDRGSPPSRVPQALNFSPEESDSTFSKSTATEVAREEAKPGGDAAPSEALLVDIKLEPLAVTPDAASQPLIDLPLIDFCDTPEAHVAVGSESRPLIDLMTNTPDMNKNVAKPSPVVGQLIDLSSPLIQLSPEADKENVDSPLLKF
binds | in vitro translated 35S-labeled murine GTSE1 (protein, UniProt Q8R080 1-741, 35S-labeled) MDAGSKKEDFLLLEDEKFDFDLSLSSSSTNEDDEVFFGPVGHKERCIAASLDLNRRVPGQPLAPGSGSPCTLSPLTGEKFVEVYKEAHLLALQIESHSRREVAQAATPQNPVNQGKETFVQDSQLKVSLFEKEQKRDRSPMSLKRETFCLPSSRVQPPMGEPQLLASPGLLSSPVSAGPAQTQSNQGLPCSSQPLPRESSTSQPPSQAGPQKRITSKLQPPRALPVRGRNLHLATEKLKKEVPASIQRTKLVNEKGSQSDVLQDKPSTAPDAASREGHPGKRSLPIPGKLGLKKTLLKPPGYTGNLTRKSSTSGSASSLESGVYRSSVAGKAKSSEQRSSIPASGSQRRTSTSKSGRIGPAASRQALPAAPARVFGRQANKADAAQTVAEQPKVPTLSPLTQQPQTPEQRGPRLDPDTETPQLNKTVSIKRRDSYLSCKTEAVSTTTNPFKVPQFSVGESPGGVTPKFSRTHRLQSWTPASRVVSSTPVRRSSGTTPQGLPGSMRTPLSTRRMSVLPTPASRRLSSLPLMAPQSMPRALVSPLCVPARRLSSEPRRRSTVRAELTQESSGSGSGGQAQGLSSDESSSPPSSVPQALNFSPEKSASPPPQGSSTGAAQGEAEPPEDTLPSEVHGGGCSHTPSEGLLLDLKLDQLTITPEAGGRDLADCPLIDFSNTPESNTALGPSSWPLIDLIMNTPDMGRNDVGKPAKAELGQLIDLGSPLIQLSPEADKENVDSPLLKF
